Test results published in the antibiotic and cytotoxicity screens of Wong et al. (2023).
Some of the results follow.

Experiments:
HSkMC = human skeletal muscle cells; experiment: cytotoxicity call (relative viability < 0.9); conditions: 10 µM
HepG2 = experiment: cytotoxicity call (relative viability < 0.9); conditions: 10 µM
S. aureus RN4220 = experiment: growth inhibition call (relative growth <= 0.2); conditions: 50 µM

C[C@H](CO)N1C[C@H](C)[C@H](CN(C)Cc2ccc(Oc3ccccc3)cc2)Oc2ccc(NC(=O)CCC(F)(F)F)cc2CC1=O
cytotoxicity call (HSkMC): inactive | cytotoxicity call (HepG2): active | growth inhibition call (S. aureus RN4220): inactive

C[C@@H]1CCCCO[C@H](CN(C)C(=O)Nc2ccc(C(F)(F)F)cc2)[C@@H](C)CN([C@H](C)CO)C(=O)c2cc(NC(=O)Nc3ccccc3)ccc2O1
cytotoxicity call (HSkMC): inactive | cytotoxicity call (HepG2): inactive | growth inhibition call (S. aureus RN4220): inactive

Nc1cc(C(=O)N2CCCC2)ccn1
cytotoxicity call (HSkMC): inactive | cytotoxicity call (HepG2): inactive | growth inhibition call (S. aureus RN4220): inactive

C[C@@H]1CN([C@H](C)CO)C(=O)c2cccc(NS(=O)(=O)c3ccccc3)c2O[C@@H]1CN(C)Cc1ccc(-c2ccccc2)cc1
cytotoxicity call (HSkMC): inactive | cytotoxicity call (HepG2): active | growth inhibition call (S. aureus RN4220): inactive

COc1cccc(OCc2ccc(Cn3nc(NC(=O)NCc4ccc(F)cc4)c4ccccc43)cc2)c1
cytotoxicity call (HSkMC): inactive | cytotoxicity call (HepG2): inactive | growth inhibition call (S. aureus RN4220): inactive

C[C@@H]1CN([C@H](C)CO)S(=O)(=O)c2ccc(C#Cc3ccc(F)cc3)cc2O[C@H]1CN(C)S(=O)(=O)c1cn(C)cn1
cytotoxicity call (HSkMC): inactive | cytotoxicity call (HepG2): inactive | growth inhibition call (S. aureus RN4220): inactive

O=C(C[C@H]1CC[C@H](NS(=O)(=O)c2ccc(F)cc2)[C@H](CO)O1)NCc1ccc(Cl)c(Cl)c1
cytotoxicity call (HSkMC): inactive | cytotoxicity call (HepG2): inactive | growth inhibition call (S. aureus RN4220): inactive

CN1C(=O)c2cc(NC(=O)c3cccs3)ccc2OC[C@H]2O[C@H](CC(=O)NCC(F)(F)F)CC[C@H]21
cytotoxicity call (HSkMC): inactive | cytotoxicity call (HepG2): inactive | growth inhibition call (S. aureus RN4220): inactive

C[C@@H]1CN([C@H](C)CO)C(=O)c2cc(NC(=O)Nc3ccc(F)cc3)ccc2O[C@H]1CN(C)CC1CCCCC1
cytotoxicity call (HSkMC): inactive | cytotoxicity call (HepG2): inactive | growth inhibition call (S. aureus RN4220): inactive

Cc1ccc(S(=O)(=O)Nc2ccc3c(c2)C(=O)N([C@@H](C)CO)C[C@@H](C)[C@@H](CN(C)Cc2ccncc2)OCCCC[C@H](C)O3)cc1
cytotoxicity call (HSkMC): inactive | cytotoxicity call (HepG2): inactive | growth inhibition call (S. aureus RN4220): inactive

Cc1cc(C(=O)Nc2cccc3c2O[C@@H](CN(C)S(=O)(=O)c2ccccc2)[C@@H](C)CN([C@H](C)CO)C3=O)n(C)n1
cytotoxicity call (HSkMC): inactive | cytotoxicity call (HepG2): inactive | growth inhibition call (S. aureus RN4220): inactive

CCC(=O)NC[C@H](Cc1ccc(OCCc2nc(-c3ccccc3)oc2C)cc1)N/C(C)=C\C(=O)c1ccc(C(F)(F)F)cc1
cytotoxicity call (HSkMC): active | cytotoxicity call (HepG2): inactive | growth inhibition call (S. aureus RN4220): inactive

C[C@H](CO)N1C[C@H](C)[C@@H](CN(C)Cc2ccc(C(F)(F)F)cc2)OCCCC[C@H](C)Oc2ccc(NS(=O)(=O)c3ccc(Cl)cc3)cc2C1=O
cytotoxicity call (HSkMC): active | cytotoxicity call (HepG2): inactive | growth inhibition call (S. aureus RN4220): inactive

NC(=O)c1cc[n+](CC2=C(C(=O)[O-])N3C(=O)C(NC(=O)Cc4cccs4)C3SC2)cc1 (stereo not given)
cytotoxicity call (HSkMC): inactive | cytotoxicity call (HepG2): inactive | growth inhibition call (S. aureus RN4220): active

CC(C)NC(=O)Nc1ccc2c(c1)C(=O)N([C@H](C)CO)C[C@H](C)[C@H](CN(C)C(=O)Nc1ccccc1)OCCCC[C@H](C)O2
cytotoxicity call (HSkMC): inactive | cytotoxicity call (HepG2): inactive | growth inhibition call (S. aureus RN4220): inactive

C[C@H](CO)N1C[C@H](C)[C@H](CN(C)C(=O)Nc2ccc3c(c2)OCO3)Oc2ncc(-c3cccnc3)cc2C1=O
cytotoxicity call (HSkMC): inactive | cytotoxicity call (HepG2): inactive | growth inhibition call (S. aureus RN4220): inactive

COC[C@H](C)N1C[C@H](C)[C@@H](CN(C)Cc2ccc(Oc3ccccc3)cc2)Oc2c(NC(=O)c3ccncc3)cccc2C1=O
cytotoxicity call (HSkMC): inactive | cytotoxicity call (HepG2): active | growth inhibition call (S. aureus RN4220): inactive

C[C@@H]1CN([C@H](C)CO)C(=O)c2cccc(NC(=O)Nc3ccc(C(F)(F)F)cc3)c2O[C@@H]1CN(C)Cc1ccc(Cl)c(Cl)c1
cytotoxicity call (HSkMC): active | cytotoxicity call (HepG2): active | growth inhibition call (S. aureus RN4220): inactive

Cn1c(=O)n2n(c1=O)[C@H](C1CC1)C=C1CN3[C@@H]([C@H](CCn4cc(CCC(=O)NO)nn4)OC(=O)[C@@H]3Cc3ccccc3)[C@@H]12
cytotoxicity call (HSkMC): inactive | cytotoxicity call (HepG2): inactive | growth inhibition call (S. aureus RN4220): inactive

C[C@@H]1CN([C@@H](C)CO)C(=O)c2cc(NC(=O)Cn3cnnn3)ccc2O[C@H]1CN(C)Cc1ccc(C(F)(F)F)cc1
cytotoxicity call (HSkMC): inactive | cytotoxicity call (HepG2): inactive | growth inhibition call (S. aureus RN4220): inactive

C[C@@H]1CN([C@H](C)CO)C(=O)c2cc(NC(=O)C3CCCCC3)ccc2O[C@@H](C)CCCCO[C@H]1CN(C)S(=O)(=O)c1ccccc1
cytotoxicity call (HSkMC): inactive | cytotoxicity call (HepG2): inactive | growth inhibition call (S. aureus RN4220): inactive

COC(=O)CNC(=O)/C=C/c1ccc(OC)cc1
cytotoxicity call (HSkMC): inactive | cytotoxicity call (HepG2): inactive | growth inhibition call (S. aureus RN4220): inactive

O=C(C[C@H]1CC[C@@H](NC(=O)CN2CCOCC2)[C@@H](CO)O1)NCc1cccc(F)c1
cytotoxicity call (HSkMC): inactive | cytotoxicity call (HepG2): inactive | growth inhibition call (S. aureus RN4220): inactive

COCC(=O)N(C)C[C@H]1Oc2cc(C#C[C@H](C)O)ccc2S(=O)(=O)N([C@@H](C)CO)C[C@H]1C
cytotoxicity call (HSkMC): inactive | cytotoxicity call (HepG2): inactive | growth inhibition call (S. aureus RN4220): inactive

COc1ccccc1NC(=O)N(C)C[C@@H]1Oc2cc(Br)ccc2S(=O)(=O)N([C@H](C)CO)C[C@@H]1C
cytotoxicity call (HSkMC): inactive | cytotoxicity call (HepG2): inactive | growth inhibition call (S. aureus RN4220): inactive
